According to US20160084841A1, “Method for Predicting Clinical Effect of Immunotherapy” (INTERNATIONAL INSTITUTE OF CANCER IMMUNOLOGY, INC., priority 2013, published 2016):

Tested on: anti-WT1332 peptide IgG antibody
Assay: ELISA using variant WT1 antigen peptide as immobilized antigen to assay anti-WT1332 peptide IgG antibody
Assay type: binding, human
Conditions: serum diluted 100-fold; titer increased in WT1332-immunized patient, not in unimmunized patient; FIG. 18
Procedure: A vector expressing WT1-frg3 (SEQ ID NO: 57) as a GST-tagged protein was constructed using a pGEX-5X-3 vector (GE Healthcare Japan Corp.). The prepared vector was transferred to competent cells DH5α by heat shock. The vector-transferred E. coli was cultured. At the point in time when the OD600 value became 0.4 to 0.6, isopropyl-β-D-thiogalactoside (IPTG) was added at a final concentration of 1 mM to the medium to induce protein expression. The cells were further cultured for 3 hours. The bacterial cells were collected by centrifugation and then lysed in an SDS sample buffer (0.125 M Tris-HCl, 0.1 M DTT, 4% SDS, 10% sucrose, and bromophenol blue, pH 6.8). […]
The GST-WT1 frag1 protein solution (10 ng/μL) was added at 100 μL/well to a 96-well plate for ELISA. […] The reaction was terminated with 1 N HCl, and the absorbance at 450 nm was then measured using a microplate reader (CORONA […] MTP-32).
To a 96-well reaction plate supplied with Peptide Coating Kit (Takara Bio Inc.) having amino groups (—NH2) attached to the bottom surface of the wells, a solution (4 μg/mL) of the WT1 peptide dissolved in a reaction buffer supplied with Peptide Coating Kit was added at 50 μL/well. […] The reaction was terminated with 1 N HCl, and the absorbance at 450 nm was then measured using a microplate reader (CORONA […] MTP-310Lab).

B1: WT1-frg3: GST-tagged long-chain peptide (132 aa, SEQ ID NO: 57) containing the whole length of the administered WT1332 peptide (protein)
chain: SEKRPFMCAYPGCNKRYFKLSHLQMHSRKHTGEKPYQCDFKDCERRFSRSDQLKRHQRRHTGVKPFQCKTCQRKFSRSDHLKTHTRTHTGKTSEKPFSCRWPSCQKKFARSDELVRHHNMHQRNMTKLQLAL
modifications: GST tag
  ability as ELISA antigen to measure anti-WT1332 IgG antibody level in patient's serum: could measure an anti-WT1332 IgG antibody level in patient's serum
